Publication PMC10726135
Some of the results follow. At the low end of the ranking the order means little. The protein was read in a cell extract, so binding may be indirect.

Each sequence was assayed against T1, HNF4alpha8 (COS-7 nuclear extract) (UniProt P41235-5) (assay: protein-binding microarray). Settings: COS-7 nuclear extract on double-stranded Agilent 4x180k PBM; binding buffer, salt, pH and temperature not given; high values mean tight binding; double strand, one strand shown; sequences stand for … in …GCCTAGGGAGATTAGAGTATCGGTCGA.
T1 sequence: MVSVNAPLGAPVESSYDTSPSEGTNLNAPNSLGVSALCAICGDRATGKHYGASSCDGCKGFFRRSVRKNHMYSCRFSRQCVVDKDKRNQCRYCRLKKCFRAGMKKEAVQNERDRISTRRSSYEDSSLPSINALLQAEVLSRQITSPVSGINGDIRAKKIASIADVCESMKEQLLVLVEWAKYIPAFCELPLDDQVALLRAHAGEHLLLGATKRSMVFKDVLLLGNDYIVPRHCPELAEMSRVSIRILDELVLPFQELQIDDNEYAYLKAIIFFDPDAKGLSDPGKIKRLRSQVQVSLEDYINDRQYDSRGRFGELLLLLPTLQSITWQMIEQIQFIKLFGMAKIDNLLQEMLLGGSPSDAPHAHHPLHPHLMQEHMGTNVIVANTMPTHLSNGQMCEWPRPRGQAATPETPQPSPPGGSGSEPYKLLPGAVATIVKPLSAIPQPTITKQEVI

Sequence | binding signal (log2 normalized intensity)
TATACAGCGTCTAAGAAGATAACATATACT | -1.33
GTTTGAAGGCTCCGGAAACGTATGACTTTG | 0.757
CCCAGCCACCAAATCAATCAAACTCTCTGT | -1.41
TTGTACGCGTCGAACTAGCTTGGTGCAGGG | -0.186
TTTCCGAGGAGAGCAAACACCAAGGGCAGA | -1.01
TCTTTGTAGGAAGGCTTTGAAGTCTGGTGG | 0.67
ACTGAGGGGTGGGGACCAGTGGGGGGAAGC | -1.18
AATATTTGCTGTCTCTTCCACCTGGAATGC | 0.79
TGCAAGCACACTGTCCTGCTTTGAAGATAA | -0.689
TTTCCGCTAAGTCCAAAGGTAAAAACTGGC | 3.83
TTTGACACAAAGGGAGGCCTAGACACAGAC | -1.42
AACTCCAGCTGGGCATTAAAGGATATCATC | -1.14
GAGAGTTCCCTTGGAATGCCAGATGACCTT | 4.6
TCTGCACAAAATACAAGTCGTAAAGACCTT | 0.877
TATCCCGCTGCTTCCACCAGGGCTAGACCC | -1.25
GAAGGTCAGGAGCCCCACAGAGCAAAGGTC | 7.03
CAGAGCCTCCCCATTGTAGATTCAATAATA | 1.29
CCCTTCCCCCAACAGGGCTCCTGTTCAGCA | 2.82
AAATAAGGAATGTGAAATGAATTTACAAAC | -1.24
GAGTCATTATCTTTATTATCCCAGTAGAGA | 1.51
GAGCAGGCCATGTGCAGAGGAGGGGGCAGG | -1.33
TGTGAAATGAATTTACAAACAAATGCAAAA | -1.3
ATTTTGCATTGCTCACATAGCTGGGACTGT | 0.108
GTGTGTGTGTGTGTGTCTGTAGTTTTCGTT | 2.47

Sequence | binding signal (log2 normalized intensity)
AGACTTGGGGCCAAAAAATTCCAGGCACAG | -1.42
TACTTTGCTTTTATCTACCAGGATGTGTGA | 1.78
GGGTGTGAGAGAGAAGGCAAGATTTTGTCC | -0.417
CCCCTTTCCACTCTACCGTCCTCCCCCACG | 4.19
AGGGTGAAAGTACAGTGATGTTTGTCAAAT | 1.61
GCCAATCTCTGGCATGTATTTATCAACATT | 0.616
ATCTGTGCCACAGGTATTTCTGTTGTTGAT | 0.411
CTGTAAAACTCCTGTGCAAGTAATTAAACA | -1.14
ATCTAAGGACAAAGTCCAAGGAAGGGCAAA | 5.15
TCTTTCTGGAACCTACAGCTGGGGCCACCT | -1.34
TCCAAGGCGGTGTGGAGGTCTACCAGGAAT | -0.879
ATTGGAAGCTCTTTCCCTCCACCAAGTTTC | 1.41
CCCTCGACCTTTGCCCTCCATAAGGGGGAG | 6.74
AATGCTTTACAAGGTGGTTGCTGTTATCTT | 1.04
CCGTGACCCTCAGGAACCAAGCATTTTGCA | -0.757
AAGAATTCCTAATAATACTGACTGAGAAAC | -1.23
TTGGTGGTGAGGGTGGGCCTGGGGGGAGAC | -1.36
ATAAGAACACAAAAAGCCTGAGCATCTTAT | -1.31
ATGACTCACTCAAGGCAGCTCAGCTAGTGA | -1.37
ACCCTCATTTGCTTGACCCGGGTACTGGAA | 2.08
CTAGGAGCATGTCAAAAGCTAAATACCCTC | -0.824
TCAAAGTCCAAATAGCGCTAACTCTATATC | 0.779
TCACTTAAAATGAGACTTCCCAGCTGCTGG | -1.4
TCTCTCAGTCTCTGTGGGAGAGTAAGTGCT | 0.228

Sequence | binding signal (log2 normalized intensity)
CTGACTGCTGACCTTTAAGCCTATAGTTTC | 3.37
TACTCAAAGGTTAACATTCTTGCTTTCTGA | 1.05
CTACCTTTGCTCTTAATTCAATGGGGTGGG | 1.49
GCTCACTATTAACTTTTCCATGTCCAAAGG | 3.02
AGTTTTGAGTGTGTTTCTTGTTTCAGAGTA | 1.38
CTTTCCTGTTGGGGAGCAAAGGTTAGCAAG | 4.65
TCGGCTCTCAGCGGAACTTTCCTCTCCGCG | -1.35
GTCTCAGGTGGAGATAAGGAATTTGTTAAG | 0.851
CTCCTGCGGTCCGGACTCTGCCCCACAATT | 4.69
ATCCAACCTTCTCCCACTTCCCTGCCTTTG | 0.565
TTGTACTTTGGAGTTTACTTTAGATGTGTT | 3.36
CAGATCACAAAGGAGCTTGTAAGCCACAGT | -1.3
TGTGAAGAGTGTGGACTTTCACCTCCACCA | 6.7
TTTGTCGCCTCTGACTTCTGACTTTTACCC | 2.96
GGCTCAATGAGGTCAATAGTCCAGATACAG | 4.17
GTGATACTCAAGGCATTTTCTTGTTGACTT | 0.336
TCCCCAGAGCCCCCTTGATGCATCAGACCC | 4.7
GGAAAACCAGAGACCTTTGTTCACTTGTTT | 3.09
GATACTGATAACATGAGGTAGAGGGACACT | -1.34
ACCATGAGGTGACGGCTAAGAGAAATCCAC | -1.33
ATGTAATGTATGCATAGACTGCCCAGAATT | 0.899
GGTGTGCTGTTAGCTGAAGGACGTCAGAAC | -0.834
GGGGGCAAGGTACACCATCTATGAGCTCAA | 2.6
GGCTTTTGGGCCCTGTCTGATAAGGGTGTT | 0.84

Sequence | binding signal (log2 normalized intensity)
TTGTTGGGTCAGTTTATCGAAAATCCCCCA | 3.92
CATTTGGGGTCAGATAATTCTTTGCTGTGG | 1.85
ATGGGATGACCTTTGAGCAATAGGAAATGG | 4.79
ACTTTCCCCCCTCACACTTTGGCTACTCAG | 3.01
ATCCCATTCCCTCTAATCTGGGACAAGGGG | -1.24
CTCTGAGTTTTGAGTGTGTTTCTTGTTTCA | 1.51
TTTGTGTGTTCCTTTTTCTGTTCAATGGTG | 2.44
AGTATCCTGGTAGTGCGACAAGAATGTGGT | 0.616
GGTCTCCTTGCCCCACCCCCCACCCCAGAA | 6.87
CCAGCCCCGGGAATTCTGGGTAGTGTAGTT | 1.02
AATGGACATCTCTAGGAACTCTGAGCTCTT | -1.11
TACTCCTCCTGGCTTCTGGACTATGCCTTG | 3.7
TGCAGCAGGGGAATGGAGACACACCTGCGG | -1.31
GATCAAGGCTCCCTGGCCACAGGAATGTGA | -1.3
TTATGCAGACCTTTGCCCTTTGTTTACATA | 5.95
AGGGGATTAGCATTTTTGTCTTTAACCCAA | 0.126
GAGTCAACAGGCAGAAGAATGGATGAGCTA | -1.21
CAGGGGTTAGGGTGAAGTAAAGTTATACTT | 0.131
TCATTGTACAAACACATACCTTAAATAAGA | -1.25
GCACCCCGGGAGCGCCGAGCACGTCGAGCA | -1.38
GATCAGAATCATAAAGCAGGGAGAGTTGCA | -1.29
